# Experimental data published in ChEMBL document CHEMBL4888484, “Replenishing the malaria drug discovery pipeline: Screening and hit evaluation of the MMV Hit Generation Library 1 (HGL1) against asexual blood stage Plasmodium falciparum ,using a nano luciferase reporter read-out” (2022).
# The whole screen tested about 150,000 compounds, of which about 540 (0.36%) showed an effect of 50% or more. This is one part of the list.
# Test system: Plasmodium falciparum
# Experiment: Primary screen in NF54 nanoGlo assay, in single point, at 2uM, 72h; a lower Z score goes with more inhibition
# Format: functional, Erythrocyte
# Conditions: timepoint 72 hour
Structure (SMILES),% Inhibition,Z score
CCN1CCC2C(C1)OCCN2C(=O)[C@H](OC)c1ccccc1 (stereo partly specified),-2%,0.37
COc1cc(CN(C)Cc2cn(C)nc2C)ccc1OC[C@@H](O)CN1CCOCC1,-11%,1.66
CN(Cc1ccccc1)Cc1cncc(-c2ccc(F)cc2F)c1,5%,-0.48
CC(NC(=O)C1C(C)C=CC2C(=O)N(C)C(=O)C21)c1ccc(F)c(F)c1 (stereo unspecified),-3%,0.58
CC(=O)Nc1ccc(NC(=O)CCc2ccc3nc(NC(C)=O)sc3c2)cc1,-15%,1.53
Cn1cc(S(=O)(=O)NC(=O)C2=CCCCC2)c2ccccc21,-5%,0.8
CCN(CC)c1onc(-c2ccccc2)c1CN(C(=O)c1ccccc1C)C(C)C,4%,-0.56
COC1(CNC(=O)c2cnc(OC(C)C)c(Cl)c2)CCOCC1,-12%,1.18
COc1ccc(CN2C[C@H]3CCC[C@@H](O)[C@H]3C2)cc1Cn1cccn1,-1%,0.06
CC1=C(C(=O)Nc2ccccc2)[C@H](c2cccc(O)c2)n2nc(-c3ccc(Cl)cc3)nc2N1,-5%,0.6
O=C1O[C@H]2CCCCCC2=NN1c1ccc(Cl)cc1,-16%,1.87
COc1ccc(C(=O)NC2Cc3ccccc3C2)o1,-4%,0.47
COC[C@H](C)NC(=O)COc1ccc(OC)cc1C(=O)OC,-5%,0.77
Cc1c(CNC2C[C@@H]3CCCC[C@H]23)cnn1C (stereo partly specified),-9%,0.97
O=C(Cn1nc(C(F)F)c2c1CCC2)N1CCc2ccccc21,-1%,0.14
Cc1[nH][nH]c(=O)c1CC(=O)NCC[C@H]1CCCOC1,-1%,0.15
Cc1cc(C)nc(NC(=O)N2CCCC2)c1,-4%,0.51
CCNC(=O)[C@H]1Cc2ccccc2CN1Cc1ccncc1F,1%,-0.24
Cn1cc([C@H](NC(=O)CCc2ccncn2)c2ccccc2)cn1,1%,-0.19
CN(C)c1ccc(NC(=O)CCn2ccc(=O)[nH]c2=O)cc1,-4%,0.45
O=C(Nc1nc2cc3c(cc2s1)OCCCO3)c1cc(Br)ccc1Cl,14%,-1.88
CCC(CC)C(=O)N1CC[C@H]2CC(=O)Nc3ccc(-c4cnn(C)c4)cc3OCC[C@H]2C1,-11%,1.71

Structure (SMILES),% Inhibition,Z score
COc1cccc(CN(C(=O)NCc2ccccc2)C2CCC(O)CC2)c1 (stereo unspecified),-12%,1.26
C[C@H]1c2ccccc2CCN1C(=O)c1cn(Cc2cccs2)nn1,-38%,4.47
COc1cccc(S(=O)(=O)N2CCCC[C@H]2c2nnc(-c3ccccc3)[nH]2)c1,-7%,1.31
Cc1ccc(NC(=O)N2CCC[C@H](Cn3cnc4cccnc43)C2)c(Cl)c1,-4%,0.66
N#Cc1c(NC(=O)CN2C(=O)CCC2=O)sc2c1CCCC2,-9%,1.56
CN(CC(F)(F)F)C(=O)c1ccc[nH]1,4%,-0.5
O=S(=O)(c1cccs1)N(CCO)CCO,-2%,0.27
C#CCCCCC(=O)Nc1ccc(C#N)cn1,4%,-0.84
CCCCOCC(=O)N1CCC[C@H](c2cc(N3CCOCC3)ncn2)C1,4%,-0.77
CCC[C@H]1CN(c2ncnc3[nH]ccc23)C[C@@H]1C(=O)O,-5%,1.06
Cc1ccsc1CNc1nc2ccccc2o1,-12%,1.56
COCC1(CNC(=O)C2CCCCCC2)CCC1,-2%,0.27
Cc1cc(C)c(C#N)c(N2C[C@@H](CN3CCCCC3)[C@@H](CO)C2)n1,-13%,1.18
O=S(=O)(CCN1CCOc2ccccc21)c1ccccc1,-9%,0.97
CCN(CC)S(=O)(=O)c1ccc(Cl)c(S(=O)(=O)Nc2ncccn2)c1,-10%,0.98
CC(C)(NCc1ccccc1Cl)C(=O)O,36%,-1.19
CCOC1CC(O)(CNC(=O)Nc2cccnc2)C1 (stereo unspecified),3%,-0.46
CC(C)Cn1cc(S(=O)(=O)Nc2cccc(C#N)c2)c2cccnc21,3%,-0.49
CCc1nn(C)c(OC)c1CNC(=O)CC#N,1%,-0.11
CNC(=O)CC(=O)OCC(=O)Nc1ccccc1C(F)(F)F,32%,-3.66
Cc1ccc(OCCNC(=O)N2CCN(CC3CC3)[C@@H](CCO)C2)cc1C,-14%,2.33
COc1cc(OC)c(OC)cc1CNC(C)C,31%,-4.5

Structure (SMILES),% Inhibition,Z score
Cc1cccc(C2(O)CCN(C(=O)CCc3ccccc3)CC2)c1C,3%,-0.36
CC(C)C[C@H](N)C(=O)N(C)Cc1ccccn1,5%,-0.62
Cc1ccc(-n2cc(-c3ccccc3)nc2NC(=O)CN(C(=O)c2ccco2)C(C)C)cc1C,3%,-0.49
CCC(CO)(CO)NC(=O)C1CC1C1CC1 (stereo unspecified),-9%,1.04
Cc1ccc(NC(=O)COc2cc(C)c(C)nn2)cc1,-4%,0.6
CCN1CCC(NC(=O)c2c[nH]nn2)C1c1ccc(Cl)c(F)c1 (stereo unspecified),1%,-0.09
COCCOCC(=O)N1CCC(F)(C(=O)N2CCCC2)CC1,-10%,1.33
Cn1cncc1-c1cc(-c2ccccc2C(F)(F)F)nc(N)c1C#N,15%,-2.1
CC(C)Cn1[nH]c(CC(=O)N2CCC=C(c3ccccn3)C2)cc1=O,0%,-0.08
CC(=O)NCC1CCN(CC(=O)N(Cc2ccccc2)C2CC2)CC1,-5%,0.6
CC[C@H](NS(=O)(=O)c1ccccc1)c1ncnn1CC,6%,-1.13
CC(C)(NC(=O)c1cncc(-n2ccnn2)c1)C(F)(F)F,-4%,0.34
COc1ccc(NC(=O)C[C@H]2CCCCN(Cc3ccccc3)C2=O)c(C)c1,-13%,2.55
N#CC1(CS(=O)(=O)N2CCO[C@@H](CF)C2)CCCC1,-7%,1.09
O=C(N[C@H]1CNC[C@@H]1O)c1csc(-c2ccc(C(F)(F)F)cc2)n1,15%,-2.04
COCC(=O)N(CCN1CCOCC1)CC(=O)N1N=C(c2ccccc2Cl)C[C@H]1c1ccc(OC)cc1,-7%,1.21
CCCN1C[C@@H]2CC[C@H]1CN(C(=O)c1ccc(C(=O)N3CCOCC3)cc1)C2,17%,-2.13
COC[C@@H]1CCC[C@@H]1NC(=O)c1ccc(C)cc1O,-6%,1.03
Cc1ccccc1[C@@H](N)c1cccs1,-12%,1.59
c1ccc2c(c1)ncn2CCn1cnc2ccccc21,-5%,0.99
O=S(=O)(NCCc1n[nH]c(-c2ccc(Cl)cc2)n1)c1ccccc1,-8%,1.45
CC(C)CCC(=O)N1CCC(CN2C[C@@H](C(=O)N3CCOCC3)CC2=O)CC1,9%,-1.17

Structure (SMILES),% Inhibition,Z score
Cn1c(C(=O)NCC2CC2)cc2c(Cl)cccc21,-7%,0.96
NC(=O)CC[C@H](NC(=O)OCc1ccccc1)C(=O)NCC1CCCCC1,27%,-3.69
Cc1cc(NS(C)(=O)=O)ccc1N,-6%,0.71
Cc1ccc(S(=O)(=O)c2ncccc2CNC2CC2)cc1,-17%,1.93
O=C(C1CCC1)N1CCCc2ccccc21,4%,-0.66
O=C(c1cnn(-c2ccccc2)n1)N1CC(N2C(=O)C3CC=CCC3C2=O)C1 (stereo unspecified),-4%,0.4
Cc1cncc(C(=O)N[C@@H](C)CC(=O)c2ccc(F)cc2)c1,-5%,0.76
O=C(NCCc1c[nH]c2ccccc12)c1ccc2c(c1)OCCO2,-29%,3.42
O=C(CCNCC(F)(F)F)N1CCC[C@H](n2cccn2)C1,-1%,0.25
CC1(C(=O)N2CCC3(CCOC3)C2)CCOC1 (stereo unspecified),0%,-0.05
COc1c(Cl)cccc1CNC(=O)C1(c2cccnc2)CCCC1,-3%,0.6
COC(=O)c1ccc(N(CCOC(C)(C)C)S(C)(=O)=O)cc1,0%,0.04
CC(=O)c1cccc(CNC(=O)[C@H]2CCCOC2)c1,-1%,0.13
Cc1nc(C)c(C(=O)N2CCCN(C)c3cc(F)ccc32)o1,0%,0
NC(=O)C1CC(C(=O)NCC2COCCO2)=NN1c1ccccc1 (stereo unspecified),-6%,1.15
O=C(NCN1CCCCC1)c1cccnc1,0%,0.05
Cc1noc(C2CCN(c3nnc(-c4c[nH]c5ccccc45)n3C)CC2)n1,-5%,0.88
CC(NC(=O)CN1CCCC1c1cnn(C)c1)c1ccco1 (stereo unspecified),-1%,0.08
Cc1cccnc1N1CCC(N2CCC[C@H](CO)C2)CC1,-9%,1.82
COCCOC[C@]1(CNC(=O)C2CCCC2)C[C@@H](O)[C@@H](O)C1,17%,-1.97
CCS(=O)(=O)c1ccc(N2CCN(CC(C)C)C(=O)C2)cc1,-7%,0.68
CN(Cc1cccnc1)C[C@H]1CCCN(C(=O)Cc2ccc(Cl)s2)C1,-1%,0.05
